# Laboratory results taken from the supplement of paper PMC8728848.
# Some of the results follow.
# B1: PX15618B-bfa-464-25-464 (Bacteroides fragilis) (protein)
# chain: DQEPPLYVNENDIFTSPTRIEATLNGLYAAIKNTGTKSLMGGKSYLVFDNRGDDVINISNNLVTLFNTYNMNVGITDAENADTWTYAYLAINKVNTFLQSLEGAREVAGENYDRYVQEAKFVRALAYYYLNNLYPTPYSVNPDAKSVPLRLTAEAGTENNNMPRSTVKQIYEHILSDLENISALDTEVNTYTGVTHATQAAANMLKMRVYMAMNEWDKAITAGELVTGYSLPEDVTLIYKAPYFSQESIFSLPMADTNIPNTQQSLAEYYYDGKIMLIDTKSGIMSKPDYSLATDKRIIAFKGEKDLLMKFTDAKTKLQWVPIFRYAETLLDLAECYANKAGGEATAKSLLKQVRGRSVDAATDPLNIDNLSGDALKEAIYNEKRLEFIGEGIRGIDIMRRGEHFIKVGENETINVGPSDEKYTWPIPQVELLLNKDINK
# What was measured:
# Test in all cases: glycan array binding signal (z-score within array); higher = stronger binding
# Conditions in all cases: glycan notation: IUPAC condensed, linker removed
# [1] = biological target: Gal(b1-3)GlcNAc(b1-2)Man(a1-3)[Gal(b1-3)GlcNAc(b1-2)Man(a1-6)]Man(b1-4)GlcNAc(b1-4)[Fuc(a1-6)]GlcNAc
# In short: (§1)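 From the Consortium for Functional Glycomics database, 3228 arrays were curated, keeping only those whose protein sequence was available. Binding is given as a within-array Z-score averaged across arrays sharing a protein sequence and across linkers. Negative Z-scores can be read as non-binding.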
# [2] = biological target: Gal(b1-3)GlcNAc(b1-2)Man(a1-3)[GlcNAc(b1-4)][Gal(b1-3)GlcNAc(b1-2)Man(a1-6)]Man(b1-4)GlcNAc(b1-4)GlcNAc
# In short: as §1
# [3] = biological target: Gal(b1-3)GlcNAc(b1-2)[Gal(b1-3)GlcNAc(b1-6)]Man(a1-6)[Gal(b1-3)GlcNAc(b1-2)Man(a1-3)]Man(b1-4)GlcNAc(b1-4)GlcNAc
# In short: as §1
# [4] = biological target: Gal(b1-3)GlcNAc(b1-3)Gal(b1-3)GlcNAc
# In short: as §1
# [5] = biological target: Gal(b1-3)GlcNAc(b1-3)Gal(b1-4)Glc
# In short: as §1
# [6] = biological target: Gal(b1-3)GlcNAc(b1-3)Gal(b1-4)GlcNAc
# In short: as §1
# [7] = biological target: Gal(b1-3)GlcNAc(b1-3)Gal(b1-4)GlcNAc(b1-2)Man(a1-3)[Gal(b1-3)GlcNAc(b1-3)Gal(b1-4)GlcNAc(b1-2)Man(a1-6)]Man(b1-4)GlcNAc(b1-4)GlcNAc
# In short: as §1
# [8] = biological target: Gal(b1-3)GlcNAc(b1-3)Gal(b1-4)GlcNAc(b1-2)[Gal(b1-3)GlcNAc(b1-3)Gal(b1-4)GlcNAc(b1-6)]Man(a1-6)[Gal(b1-3)GlcNAc(b1-3)Gal(b1-4)GlcNAc(b1-2)Man(a1-3)]Man(b1-4)GlcNAc(b1-4)[Fuc(a1-6)]GlcNAc
# In short: as §1
# [9] = biological target: Gal(b1-3)GlcNAc(b1-3)Gal(b1-4)GlcNAc(b1-3)Gal(b1-4)GlcNAc(b1-2)[Gal(b1-3)GlcNAc(b1-3)Gal(b1-4)GlcNAc(b1-3)Gal(b1-4)GlcNAc(b1-6)]Man(a1-6)[Gal(b1-3)GlcNAc(b1-3)Gal(b1-4)GlcNAc(b1-3)Gal(b1-4)GlcNAc(b1-2)Man(a1-3)]Man(b1-4)GlcNAc(b1-4)[Fuc(a1-6)]GlcNAc
# In short: as §1
# [10] = biological target: Gal(b1-3)GlcNAc(b1-3)Gal(b1-4)GlcNAc(b1-6)[Gal(b1-3)GlcNAc(b1-3)]Gal(b1-4)Glc
# In short: as §1
# [11] = biological target: Gal(b1-3)GlcNAc(b1-3)Gal(b1-4)[Fuc(a1-3)]GlcNAc
# In short: as §1
# [12] = biological target: Gal(b1-3)GlcNAc(b1-3)Gal(b1-4)[Fuc(a1-3)]GlcNAc(b1-6)[Gal(b1-3)GlcNAc(b1-3)]Gal(b1-4)Glc
# In short: as §1
# [13] = biological target: Gal(b1-3)GlcNAc(b1-3)GalNAc
# In short: as §1
# [14] = biological target: Gal(b1-3)GlcNAc(b1-6)Gal(b1-4)GlcNAc
# In short: as §1
# [15] = biological target: Gal(b1-3)GlcNAc(b1-6)GalNAc
# In short: as §1
# [16] = biological target: Gal(b1-3)GlcNAc(b1-6)[Gal(b1-3)]GalNAc
# In short: as §1
# [17] = biological target: Gal(b1-3)GlcNAc6S
# In short: as §1
# [18] = biological target: Gal(b1-3)[Fuc(a1-4)]GlcNAc
# In short: as §1
# [19] = biological target: Gal(b1-3)[Fuc(a1-4)]GlcNAc(b1-2)Man
# In short: as §1
# [20] = biological target: Gal(b1-3)[Fuc(a1-4)]GlcNAc(b1-2)Man(a1-3)[Gal(b1-3)[Fuc(a1-4)]GlcNAc(b1-2)Man(a1-6)]Man(b1-4)GlcNAc(b1-4)[Fuc(a1-6)]GlcNAc
# In short: as §1
# [21] = biological target: Gal(b1-3)[Fuc(a1-4)]GlcNAc(b1-3)Gal(b1-3)[Fuc(a1-4)]GlcNAc
# In short: as §1
# [22] = biological target: Gal(b1-3)[Fuc(a1-4)]GlcNAc(b1-3)Gal(b1-4)[Fuc(a1-3)]GlcNAc
# In short: as §1
# [23] = biological target: Gal(b1-3)[Fuc(a1-4)]GlcNAc(b1-6)GalNAc
# In short: as §1
# [24] = biological target: Gal(b1-3)[GlcNAc(b1-6)]GalNAc
# In short: as §1
# [25] = biological target: Gal(b1-3)[Neu5Ac(a2-6)]GalNAc
# In short: as §1
# [26] = biological target: Gal(b1-3)[Neu5Ac(a2-6)]GlcNAc(b1-4)Gal(b1-4)Glc
# In short: as §1
# [27] = biological target: Gal(b1-3)[Neu5Ac(b2-6)]GalNAc
# In short: as §1
# [28] = biological target: Gal(b1-4)Gal
# In short: as §1
# [29] = biological target: Gal(b1-4)GalNAc(a1-3)[Fuc(a1-2)]Gal(b1-4)GlcNAc
# In short: as §1
# [30] = biological target: Gal(b1-4)GalNAc(b1-3)[Fuc(a1-2)]Gal(b1-4)GlcNAc
# In short: as §1
# [31] = biological target: Gal(b1-4)Glc
# In short: as §1
# [32] = biological target: Gal(b1-4)Glc6S
# In short: as §1
# [33] = biological target: Gal(b1-4)GlcNAc
# In short: as §1
# [34] = biological target: Gal(b1-4)GlcNAc(a1-6)Gal(b1-4)GlcNAc
# In short: as §1
# [35] = biological target: Gal(b1-4)GlcNAc(b1-2)Man
# In short: as §1
# [36] = biological target: Gal(b1-4)GlcNAc(b1-2)Man(a1-3)Man(b1-4)GlcNAc(b1-4)GlcNAc
# In short: as §1
# [37] = biological target: Gal(b1-4)GlcNAc(b1-2)Man(a1-3)[Gal(b1-4)GlcNAc(b1-2)Man(a1-6)]Man(b1-4)GlcNAc(b1-4)GlcNAc
# In short: as §1
binder,measurement,setting,value
B1,glycan array binding signal (z-score),[1],0.341
same,glycan array binding signal (z-score),[2],0.456
same,glycan array binding signal (z-score),[3],0.104
same,glycan array binding signal (z-score),[4],0.182
same,glycan array binding signal (z-score),[5],-0.07
same,glycan array binding signal (z-score),[6],-0.377
same,glycan array binding signal (z-score),[7],-0.678
same,glycan array binding signal (z-score),[8],0.521
same,glycan array binding signal (z-score),[9],1.04
same,glycan array binding signal (z-score),[10],-0.005
same,glycan array binding signal (z-score),[11],-0.274
same,glycan array binding signal (z-score),[12],0.349
same,glycan array binding signal (z-score),[13],-0.304
same,glycan array binding signal (z-score),[14],-0.205
same,glycan array binding signal (z-score),[15],0.639
same,glycan array binding signal (z-score),[16],0.483
same,glycan array binding signal (z-score),[17],-0.229
same,glycan array binding signal (z-score),[18],-0.032
same,glycan array binding signal (z-score),[19],-0.546
same,glycan array binding signal (z-score),[20],0.153
same,glycan array binding signal (z-score),[21],-0.72
same,glycan array binding signal (z-score),[22],-0.681
same,glycan array binding signal (z-score),[23],-0.13
same,glycan array binding signal (z-score),[24],-0.464
same,glycan array binding signal (z-score),[25],-0.249
same,glycan array binding signal (z-score),[26],0.221
same,glycan array binding signal (z-score),[27],-0.017
same,glycan array binding signal (z-score),[28],-0.207
same,glycan array binding signal (z-score),[29],0.272
same,glycan array binding signal (z-score),[30],-0.753
same,glycan array binding signal (z-score),[31],-0.462
same,glycan array binding signal (z-score),[32],0.136
same,glycan array binding signal (z-score),[33],-0.484
same,glycan array binding signal (z-score),[34],-0.333
same,glycan array binding signal (z-score),[35],-0.15
same,glycan array binding signal (z-score),[36],-0.16
same,glycan array binding signal (z-score),[37],-0.653
